Reference: a compilation of properties of binary mixtures (doi:10.1016/j.molliq.2012.11.030)
Some of these densities may be calculated back from excess volumes.

Experiment: xn = mol fraction of the nth substance listed
Conditions: 298.15 K, 101 kPa

CC(=O)[O-].CC[NH3+] + O
Conditions | mass density [kg/m3]
x1 = 0.003 | 998.8
x1 = 0.0103 | 1002.9
x2 = 0 | 1017.7
x2 = 0.2027 | 1024.4
x2 = 0.3481 | 1028.1
x2 = 0.7999 | 1040.7
x2 = 0.8502 | 1038.2
x2 = 0.9436 | 1021.1
x2 = 0.9502 | 1019.1
x2 = 0.96 | 1015.7
x2 = 0.9685 | 1012.5
x2 = 0.9799 | 1007.6
